In all, about 81,000 sequences were measured (“one-hybrid fitness for binding NBS DNA”: median about -0.1, highest 2% from about 0.36 on). The list shows a part of the results.
B1: Caulobacter ParB omega fusion; a variant is named by its letters at X, in order, B8GW30 (parent)
chain: MESVVVGEPGMSEGRRGLGRGLSALLGEVDAAPAQAPGEQLGGSREAPIEILQRNPDQPRRTFREEDLEDLSNSIREKGVLQPILVRPSPDTAGEYQIVAGERAWRAAQRAGLKTVPIMVRELDDLAVLEIGIIENVQRADLNVLEEALSYKVLMEKFERTQENIAQTIGKSXSHVANXMRLLXLPDEVQSYLVSGELTAXHARAIAAAADPVALAKQIIEGGLSVRETEALARKAPNLSAGKSKGGRPPRVKDTDTQALESDLSSVLGLDVSIDHRGSTGTLTITYATLEQLDDLCNRLTRGI

Variants of: B1
Assay: one-hybrid fitness for binding NBS DNA (the Noc-binding site; scaled: cognate 1, non-cognate 0); higher = stronger binding
Conditions: with NBS DNA site
How it was run: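 Bacterial one-hybrid selection in E. coli USO rpoZ- hisB- pyrF- with a HIS3 reporter carrying the site 19 bp from the promoter, screening Caulobacter ParB libraries with four specificity codons randomised (NNS). Cells grew 48 hours at 37°C on M9-minus-histidine plus 0.1 mM IPTG and 5 mM 3-AT. Plasmids before and after selection were Illumina-sequenced, three replicate libraries pooled, and variants under 10 reads dropped. Fitness is the log change in variant-to-wild-type read ratio, rescaled to cognate 1, non-cognate 0.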

QQLK and QIRE cannot be ordered by “one-hybrid fitness for binding NBS DNA” value: no more than 0.2 for the first, no more than 0.2 for the second.

PQFV and RGVG cannot be ordered by “one-hybrid fitness for binding NBS DNA” value: no more than 0.2 for the first, no more than 0.2 for the second.

DRSY and DPNG cannot be ordered by “one-hybrid fitness for binding NBS DNA” value: no more than 0.2 for the first, no more than 0.2 for the second.

DPDY and WSSW cannot be ordered by “one-hybrid fitness for binding NBS DNA” value: no more than 0.2 for the first, no more than 0.2 for the second.

Compared with NDLT, KVKR is higher in “one-hybrid fitness for binding NBS DNA” value: no more than 0.2 for the first, 0.253 for the second.

WIYR and VPMS cannot be ordered by “one-hybrid fitness for binding NBS DNA” value: no more than 0.2 for the first, no more than 0.2 for the second.

LDSG and CILC cannot be ordered by “one-hybrid fitness for binding NBS DNA” value: no more than 0.2 for the first, no more than 0.2 for the second.

WLTN and DVDM cannot be ordered by “one-hybrid fitness for binding NBS DNA” value: no more than 0.2 for the first, no more than 0.2 for the second.

YLNV and HWDS cannot be ordered by “one-hybrid fitness for binding NBS DNA” value: no more than 0.2 for the first, no more than 0.2 for the second.

SHGC and DPMT cannot be ordered by “one-hybrid fitness for binding NBS DNA” value: no more than 0.2 for the first, no more than 0.2 for the second.

RRSW and YPRC cannot be ordered by “one-hybrid fitness for binding NBS DNA” value: no more than 0.2 for the first, no more than 0.2 for the second.

Compared with RRDV, GNLR is lower in “one-hybrid fitness for binding NBS DNA” value: 0.223 for the first, no more than 0.2 for the second.

HFAY and YGMG cannot be ordered by “one-hybrid fitness for binding NBS DNA” value: no more than 0.2 for the first, no more than 0.2 for the second.

DESY and VCHG cannot be ordered by “one-hybrid fitness for binding NBS DNA” value: no more than 0.2 for the first, no more than 0.2 for the second.

SDRL and GNRS cannot be ordered by “one-hybrid fitness for binding NBS DNA” value: no more than 0.2 for the first, no more than 0.2 for the second.

IRFS and NDIF cannot be ordered by “one-hybrid fitness for binding NBS DNA” value: no more than 0.2 for the first, no more than 0.2 for the second.

Compared with QCPS, VTNG is lower in “one-hybrid fitness for binding NBS DNA” value: 0.299 for the first, no more than 0.2 for the second.

ETLV and GATK cannot be ordered by “one-hybrid fitness for binding NBS DNA” value: no more than 0.2 for the first, no more than 0.2 for the second.

PSIV and YSRT cannot be ordered by “one-hybrid fitness for binding NBS DNA” value: no more than 0.2 for the first, no more than 0.2 for the second.

YAAM and ENKT cannot be ordered by “one-hybrid fitness for binding NBS DNA” value: no more than 0.2 for the first, no more than 0.2 for the second.

CLTD and DGWG cannot be ordered by “one-hybrid fitness for binding NBS DNA” value: no more than 0.2 for the first, no more than 0.2 for the second.

LFFR and SCYR cannot be ordered by “one-hybrid fitness for binding NBS DNA” value: no more than 0.2 for the first, no more than 0.2 for the second.

VNSD and QHGC cannot be ordered by “one-hybrid fitness for binding NBS DNA” value: no more than 0.2 for the first, no more than 0.2 for the second.

IVTK and TFWS cannot be ordered by “one-hybrid fitness for binding NBS DNA” value: no more than 0.2 for the first, no more than 0.2 for the second.

QAAF and VPPL cannot be ordered by “one-hybrid fitness for binding NBS DNA” value: no more than 0.2 for the first, no more than 0.2 for the second.

WYYT and SCRM cannot be ordered by “one-hybrid fitness for binding NBS DNA” value: no more than 0.2 for the first, no more than 0.2 for the second.

Compared with NVCR, QQVT is higher in “one-hybrid fitness for binding NBS DNA” value: no more than 0.2 for the first, 0.393 for the second.

RMAE and DVFR cannot be ordered by “one-hybrid fitness for binding NBS DNA” value: no more than 0.2 for the first, no more than 0.2 for the second.

HRTK and PVAV cannot be ordered by “one-hybrid fitness for binding NBS DNA” value: no more than 0.2 for the first, no more than 0.2 for the second.

MGDR and SLLP cannot be ordered by “one-hybrid fitness for binding NBS DNA” value: no more than 0.2 for the first, no more than 0.2 for the second.

YHGV and PTSY cannot be ordered by “one-hybrid fitness for binding NBS DNA” value: no more than 0.2 for the first, no more than 0.2 for the second.

Compared with QQRP, EVRG is lower in “one-hybrid fitness for binding NBS DNA” value: 0.312 for the first, no more than 0.2 for the second.

LDRC and YKPE cannot be ordered by “one-hybrid fitness for binding NBS DNA” value: no more than 0.2 for the first, no more than 0.2 for the second.

HERV and MFNV cannot be ordered by “one-hybrid fitness for binding NBS DNA” value: no more than 0.2 for the first, no more than 0.2 for the second.

RYVY and NASV cannot be ordered by “one-hybrid fitness for binding NBS DNA” value: no more than 0.2 for the first, no more than 0.2 for the second.

First: TANI
Second: QSRW
The “one-hybrid fitness for binding NBS DNA” value of the first is lower: no more than 0.2 for the first, 0.254 for the second.

GCIR and VLEM cannot be ordered by “one-hybrid fitness for binding NBS DNA” value: no more than 0.2 for the first, no more than 0.2 for the second.

ATYA and CPWP cannot be ordered by “one-hybrid fitness for binding NBS DNA” value: no more than 0.2 for the first, no more than 0.2 for the second.

KLAG and TCLF cannot be ordered by “one-hybrid fitness for binding NBS DNA” value: no more than 0.2 for the first, no more than 0.2 for the second.

HILC and YIPV cannot be ordered by “one-hybrid fitness for binding NBS DNA” value: no more than 0.2 for the first, no more than 0.2 for the second.

NTPP and EVRT cannot be ordered by “one-hybrid fitness for binding NBS DNA” value: no more than 0.2 for the first, no more than 0.2 for the second.

GCVC and LYFR cannot be ordered by “one-hybrid fitness for binding NBS DNA” value: no more than 0.2 for the first, no more than 0.2 for the second.

QNQW and YRQC cannot be ordered by “one-hybrid fitness for binding NBS DNA” value: no more than 0.2 for the first, no more than 0.2 for the second.

HVTE and LAVT cannot be ordered by “one-hybrid fitness for binding NBS DNA” value: no more than 0.2 for the first, no more than 0.2 for the second.

VVAA and SAYW cannot be ordered by “one-hybrid fitness for binding NBS DNA” value: no more than 0.2 for the first, no more than 0.2 for the second.

TSVA and DHAS cannot be ordered by “one-hybrid fitness for binding NBS DNA” value: no more than 0.2 for the first, no more than 0.2 for the second.

ANYR and VPYL cannot be ordered by “one-hybrid fitness for binding NBS DNA” value: no more than 0.2 for the first, no more than 0.2 for the second.

DRWT and MHRC cannot be ordered by “one-hybrid fitness for binding NBS DNA” value: no more than 0.2 for the first, no more than 0.2 for the second.

IPPT and RHIH cannot be ordered by “one-hybrid fitness for binding NBS DNA” value: no more than 0.2 for the first, no more than 0.2 for the second.

Reference: a collection of fitness landscapes (doi:10.1016/j.celrep.2020.107928)
